Some of the results follow.
Experiments:
Assay in all cases: glycan array binding signal (z-score within array); higher = stronger binding
Conditions in all cases: glycan notation: IUPAC condensed, linker removed
[1] = biological target: Gal(b1-4)GlcNAc(a1-6)Gal(b1-4)GlcNAc
Outline: (§1)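 From the Consortium for Functional Glycomics database, 3228 arrays were curated, keeping only those whose protein sequence was available. Binding is given as a within-array Z-score averaged across arrays sharing a protein sequence and across linkers. Negative Z-scores can be read as non-binding.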

[2] = biological target: Gal(b1-4)GlcNAc(b1-2)Man(a1-3)Man(b1-4)GlcNAc(b1-4)GlcNAc
Outline: as §1

[3] = biological target: Gal(b1-4)GlcNAc(b1-2)Man(a1-3)[Gal(b1-4)GlcNAc(b1-2)Man(a1-6)]Man(b1-4)GlcNAc(b1-4)GlcNAc
Outline: as §1

[4] = biological target: Gal(b1-4)GlcNAc(b1-2)Man(a1-3)[Gal(b1-4)GlcNAc(b1-2)Man(a1-6)]Man(b1-4)GlcNAc(b1-4)[Fuc(a1-6)]GlcNAc
Outline: as §1

[5] = biological target: Gal(b1-4)GlcNAc(b1-2)Man(a1-3)[GlcNAc(b1-2)Man(a1-6)]Man(b1-4)GlcNAc(b1-4)GlcNAc
Outline: as §1

[6] = biological target: Gal(b1-4)GlcNAc(b1-2)Man(a1-3)[Man(a1-6)]Man(b1-4)GlcNAc(b1-4)GlcNAc
Outline: as §1

[7] = biological target: Gal(b1-4)GlcNAc(b1-2)Man(a1-6)Man(b1-4)GlcNAc(b1-4)GlcNAc
Outline: as §1

[8] = biological target: Gal(b1-4)GlcNAc(b1-2)Man(a1-6)[GlcNAc(b1-2)Man(a1-3)]Man(b1-4)GlcNAc(b1-4)GlcNAc
Outline: as §1

[9] = biological target: Gal(b1-4)GlcNAc(b1-2)Man(a1-6)[Man(a1-3)]Man(b1-4)GlcNAc(b1-4)GlcNAc
Outline: as §1

[10] = biological target: Gal(b1-4)GlcNAc(b1-2)[Gal(b1-4)GlcNAc(b1-4)]Man(a1-3)[Gal(b1-4)GlcNAc(b1-2)Man(a1-6)]Man(b1-4)GlcNAc(b1-4)GlcNAc
Outline: as §1

[11] = biological target: Gal(b1-4)GlcNAc(b1-2)[Gal(b1-4)GlcNAc(b1-4)]Man(a1-3)[Gal(b1-4)GlcNAc(b1-2)[Gal(b1-4)GlcNAc(b1-6)]Man(a1-6)]Man(b1-4)GlcNAc(b1-4)GlcNAc
Outline: as §1

[12] = biological target: Gal(b1-4)GlcNAc(b1-3)Gal(b1-3)GlcNAc
Outline: as §1

[13] = biological target: Gal(b1-4)GlcNAc(b1-3)Gal(b1-4)Glc
Outline: as §1

[14] = biological target: Gal(b1-4)GlcNAc(b1-3)Gal(b1-4)GlcNAc
Outline: as §1

[15] = biological target: Gal(b1-4)GlcNAc(b1-3)Gal(b1-4)GlcNAc(b1-3)Gal(b1-4)GlcNAc
Outline: as §1

[16] = biological target: Gal(b1-4)GlcNAc(b1-3)Gal(b1-4)[Fuc(a1-3)]GlcNAc(b1-3)Gal(b1-4)[Fuc(a1-3)]GlcNAc
Outline: as §1

[17] = biological target: Gal(b1-4)GlcNAc(b1-3)GalNAc
Outline: as §1

[18] = biological target: Gal(b1-4)GlcNAc(b1-3)[Gal(b1-4)GlcNAc(b1-6)]Gal(b1-4)GlcNAc
Outline: as §1

[19] = biological target: Gal(b1-4)GlcNAc(b1-3)[Gal(b1-4)GlcNAc(b1-6)]GalNAc
Outline: as §1

[20] = biological target: Gal(b1-4)GlcNAc(b1-3)[GlcNAc(b1-6)]Gal(b1-4)GlcNAc
Outline: as §1

[21] = biological target: Gal(b1-4)GlcNAc(b1-6)Gal(b1-4)GlcNAc
Outline: as §1

[22] = biological target: Gal(b1-4)GlcNAc(b1-6)GalNAc
Outline: as §1

[23] = biological target: Gal(b1-4)GlcNAc(b1-6)[Gal(b1-3)]GalNAc
Outline: as §1

Gal3S(b1-3)GalNAc = biological target: Gal3S(b1-3)GalNAc
Outline: as §1

Gal3S(b1-3)GlcNAc = biological target: Gal3S(b1-3)GlcNAc
Outline: as §1

[24] = biological target: Gal3S(b1-3)[Fuc(a1-4)]GlcNAc
Outline: as §1

Gal3S(b1-4)Glc = biological target: Gal3S(b1-4)Glc
Outline: as §1

Gal3S(b1-4)Glc6S = biological target: Gal3S(b1-4)Glc6S
Outline: as §1

Gal3S(b1-4)GlcNAc = biological target: Gal3S(b1-4)GlcNAc
Outline: as §1

Gal3S(b1-4)GlcNAc6S = biological target: Gal3S(b1-4)GlcNAc6S
Outline: as §1

[25] = biological target: Gal3S(b1-4)[Fuc(a1-3)]Glc
Outline: as §1

[26] = biological target: Gal3S(b1-4)[Fuc(a1-3)]Glc6S
Outline: as §1

Gal3S4S(b1-4)GlcNAc = biological target: Gal3S4S(b1-4)GlcNAc
Outline: as §1

Gal3S6S(b1-4)GlcNAc = biological target: Gal3S6S(b1-4)GlcNAc
Outline: as §1

Gal3S6S(b1-4)GlcNAc6S = biological target: Gal3S6S(b1-4)GlcNAc6S
Outline: as §1

Gal4S(b1-4)GlcNAc = biological target: Gal4S(b1-4)GlcNAc
Outline: as §1

Gal4S6S(b1-4)GlcNAc = biological target: Gal4S6S(b1-4)GlcNAc
Outline: as §1

Gal6S(b1-4)Glc = biological target: Gal6S(b1-4)Glc
Outline: as §1

Gal6S(b1-4)Glc6S = biological target: Gal6S(b1-4)Glc6S
Outline: as §1

Gal6S(b1-4)GlcNAc = biological target: Gal6S(b1-4)GlcNAc
Outline: as §1

Gal6S(b1-4)GlcNAc6S = biological target: Gal6S(b1-4)GlcNAc6S
Outline: as §1

GalNAc(a1-3)Gal = biological target: GalNAc(a1-3)Gal
Outline: as §1

GalNAc(a1-3)GalNAc = biological target: GalNAc(a1-3)GalNAc
Outline: as §1

[27] = biological target: GalNAc(a1-3)GalNAc(a1-3)Gal(a1-4)Gal(b1-4)GlcNAc
Outline: as §1

GalNAc(b1-3)Gal = biological target: GalNAc(b1-3)Gal
Outline: as §1

B1: SSL (Salmo salar) (protein)
chain: TGAKGAEEGVVPAETRNQCPTGWFQFGSRCFMFVETARSWPLAERHCVSLGANLASVHSSADDQFLQAIAGCKTGAFSTTWIGGFDAVQDRLWFWSDGSEFDYQNWAKGEPNNSGGREPCIVINWGDEYRWNDIKCGNSFPSVCSKRICEIQKN
glycan array binding signal (z-score) [1]: -0.168
glycan array binding signal (z-score) [2]: -0.18
glycan array binding signal (z-score) [3]: -0.167
glycan array binding signal (z-score) [4]: -0.172
glycan array binding signal (z-score) [5]: -0.179
glycan array binding signal (z-score) [6]: -0.18
glycan array binding signal (z-score) [7]: -0.17
glycan array binding signal (z-score) [8]: -0.167
glycan array binding signal (z-score) [9]: -0.163
glycan array binding signal (z-score) [10]: -0.183
glycan array binding signal (z-score) [11]: -0.182
glycan array binding signal (z-score) [12]: -0.174
glycan array binding signal (z-score) [13]: -0.166
glycan array binding signal (z-score) [14]: -0.178
glycan array binding signal (z-score) [15]: -0.182
glycan array binding signal (z-score) [16]: -0.175
glycan array binding signal (z-score) [17]: -0.172
glycan array binding signal (z-score) [18]: -0.183
glycan array binding signal (z-score) [19]: -0.174
glycan array binding signal (z-score) [20]: -0.155
glycan array binding signal (z-score) [21]: -0.179
glycan array binding signal (z-score) [22]: -0.168
glycan array binding signal (z-score) [23]: -0.157
glycan array binding signal (z-score) (Gal3S(b1-3)GalNAc): -0.168
glycan array binding signal (z-score) (Gal3S(b1-3)GlcNAc): -0.173
glycan array binding signal (z-score) [24]: -0.159
glycan array binding signal (z-score) (Gal3S(b1-4)Glc): -0.132
glycan array binding signal (z-score) (Gal3S(b1-4)Glc6S): -0.133
glycan array binding signal (z-score) (Gal3S(b1-4)GlcNAc): -0.143
glycan array binding signal (z-score) (Gal3S(b1-4)GlcNAc6S): -0.156
glycan array binding signal (z-score) [25]: -0.133
glycan array binding signal (z-score) [26]: -0.088
glycan array binding signal (z-score) (Gal3S4S(b1-4)GlcNAc): -0.15
glycan array binding signal (z-score) (Gal3S6S(b1-4)GlcNAc): -0.156
glycan array binding signal (z-score) (Gal3S6S(b1-4)GlcNAc6S): -0.152
glycan array binding signal (z-score) (Gal4S(b1-4)GlcNAc): -0.166
glycan array binding signal (z-score) (Gal4S6S(b1-4)GlcNAc): -0.148
glycan array binding signal (z-score) (Gal6S(b1-4)Glc): -0.154
glycan array binding signal (z-score) (Gal6S(b1-4)Glc6S): -0.147
glycan array binding signal (z-score) (Gal6S(b1-4)GlcNAc): -0.174
glycan array binding signal (z-score) (Gal6S(b1-4)GlcNAc6S): -0.162
glycan array binding signal (z-score) (GalNAc(a1-3)Gal): -0.165
glycan array binding signal (z-score) (GalNAc(a1-3)GalNAc): -0.169
glycan array binding signal (z-score) [27]: -0.185
glycan array binding signal (z-score) (GalNAc(b1-3)Gal): -0.143
